Hit rate of the full screen: of about 52,000 compounds, about 1,700 (3.3%) were called active. No stated cut-off is given here; in the data, active means survival mostly below about 52% (no sharp cut-off); inactive means mostly above about 56%. The list shows a part of the results.
Test system: Wild type
Assay: S. aureus survival, RN4220 and DeltatarO strains – OD600, teichoic acid synthesis inhibitors, primary screen (AID 463173)
Conditions: S. aureus RN4220 wild type/DeltatarO growth, OD600, 18 h, stronger effect = lower value, screened at 18.75 µg/mL (by protocol)

| Structure (SMILES) | survival |
| --- | --- |
| Cn1c(Oc2ccccc2)nc2c1c(=O)n(Cc1ccc(Cl)cc1Cl)c(=O)n2C | inactive: 82% |
| Cc1ccc(-n2ncc(C(=O)NCCCN3CCN(C)CC3)c2C2CCN(C(=O)OC(C)(C)C)CC2)c(C)c1 | inactive: 79% |
| Cc1cc(C)cc(OCC(=O)NCCN2CCOCC2)c1 | inactive: 109% |
| O=C(CCn1cnc2onc(-c3ccc(F)cc3)c2c1=O)N1CCN(c2ccccc2F)CC1 | active: -6% |
| COC(=O)c1ccccc1NC(=O)Cn1c(=O)cc(C)c2c(C)nn(-c3cccc(Cl)c3C)c21 | inactive: 88% |
| Cc1ccc2c(CC(=O)N(Cc3cccc(Cl)c3)C3CCS(=O)(=O)C3)coc2c1 (stereo unspecified) | inactive: 56% |
| Cc1ccc(C(=O)CC2(O)C(=O)N(Cc3ccccc3)c3ccccc32)c(C)c1 (stereo unspecified) | inactive: 20% |
| CNS(=O)(=O)c1cn(CC(=O)N2CCN(c3ccccc3OC)CC2)cc1S(=O)(=O)NC | inactive: 68% |
| CCOC(=O)C1CCCN(C(=O)c2ccc(NC(=O)c3nsc4ccccc34)cc2)C1 (stereo unspecified) | inactive: 57% |
| COc1ccc(Cl)cc1NC(=O)Cn1cnc2sc(C)c(S(=O)(=O)N3CCN(c4ccccc4OC)CC3)c2c1=O | inactive: 71% |
| Cc1cc2cc(CN(Cc3ccccc3)C(=O)N(C)C)c3nnnn3c2cc1C | inactive: 106% |
| O=C(CC1Nc2cccc3cccc(c23)NC1=O)Nc1ccc(F)cc1 (stereo unspecified) | inactive: 112% |
| COc1cccc(N2CCN(Cc3cc(=O)oc4cc(C)ccc34)CC2)c1 | inactive: 77% |
| Cc1ccc2c(c1)C(c1ccc(F)cc1)N(C(=O)c1cccc(C(F)(F)F)c1)CC(=O)N2 (stereo unspecified) | inactive: 79% |
| CC(C)OCCCN1C(=O)c2[nH]nc(-c3ccccc3O)c2C1c1cccc(OCc2ccccc2)c1 (stereo unspecified) | inactive: 78% |
| N#Cc1cccc(NC(=O)CCNS(=O)(=O)c2ccc3c(c2)CCN3C(=O)C2CC2)c1 | inactive: 105% |
| Cc1c2cnn(CC(=O)N3CCN(c4ccc(F)cc4)CC3)c(=O)c2c(C)n1Cc1ccccc1F | inactive: 92% |
| O=C(Nc1nnc(S(=O)(=O)N2CCc3ccccc32)s1)c1ccccc1Cl | inactive: 23% |
| CCOC(=O)c1c(C)[nH]c(CCC(=O)NCCCN2CCN(c3ccccc3F)CC2)c1C | inactive: 68% |
| COc1ccc(-c2nc(Cn3c(=O)cc(C)c4c(C)nn(-c5ccccc5)c43)c(C)o2)c(OC)c1 | inactive: 73% |
| CN(C)c1ccc(CNC(=O)Cn2ccc3cc(S(=O)(=O)N4CCCCCC4)ccc32)cc1 | inactive: 85% |
| Cc1cc(C)cc(-n2ccnc2SCC(=O)Nc2nc3ccc(C)cc3s2)c1 | inactive: 64% |

| Structure (SMILES) | survival |
| --- | --- |
| CCC1CN(C(=O)N2CCC(C(=O)NCCC3=CCCCC3)CC2)c2cc(C)ccc2O1 (stereo unspecified) | inactive: 89% |
| COc1ccc2cc(CN(Cc3cccnc3)Cc3nnnn3Cc3ccc(F)cc3)c(=O)[nH]c2c1 | inactive: 106% |
| Cc1cccc(OCC(=O)Nc2ccc(-c3nc4cc(C)ccc4o3)c(O)c2)c1 | inactive: 70% |
| COc1ccc(S(=O)(=O)N(CC(=O)N(C)Cc2ccccc2)c2ccc(Cl)cc2)cc1 | inactive: 77% |
| Cc1ccc(OCC(=O)Nc2ccc(Cl)c(-c3nc4ccccc4[nH]3)c2)cc1C | inactive: 66% |
| CCn1cc2nc(SCc3ccc(C)cc3)n(CCc3ccccc3)c(=O)c2n1 | inactive: 68% |
| COc1ccc(NC(=O)CSc2nnc(NC(=O)Nc3ccccc3)s2)c(OC)c1 | inactive: 60% |
| CCc1ccc(NC(=O)CSc2nc3ccccc3nc2Cc2ccccc2OC)cc1 | inactive: 82% |
| C=CCNc1ccc(C(=O)O)cc1 | inactive: 109% |
| CCOC(=O)c1ccc(NC(=O)c2c(NCc3sccc3C)sc3c2CCCCC3)cc1 | inactive: 85% |
| O=C(NC1CCCCC1)c1c[nH]c2ccc(S(=O)(=O)Nc3ccccc3F)cc2c1=O | inactive: 102% |
| Cc1cc(C)cc(NC(=O)N2CCN3CCCCC3C2)c1 (stereo unspecified) | inactive: 135% |
| COc1ccc(Cn2c(=O)[nH]c3cc(C(=O)N4CCN(c5cccc(OC)c5)CC4)ccc3c2=O)cc1 | inactive: 63% |
| CC1CCCN(c2cc3c(cc2F)c(=O)c(S(=O)(=O)c2cccc(Cl)c2)cn3C)C1 (stereo unspecified) | inactive: 63% |
| Cn1cc(C(=O)NCc2ccc(Cl)cc2)c(=O)c2cc(S(=O)(=O)N3CCCCCC3)ccc21 | inactive: 73% |
| COc1ccc(CNC(=O)CSc2nc3cc4c(cc3cc2C#N)OCCO4)cc1 | inactive: 100% |
| COc1ccccc1-c1nnc(SCC(=O)OC(C)C)n1-c1ccccc1 | inactive: 115% |
| COc1cccc(C(=O)Nc2cc3cc(OC)ccc3oc2=O)c1 | inactive: 78% |
| Cc1cc(C)c2c(n1)SCCN2C(=O)Nc1ccc(C(=O)Nc2cc(Cl)ccc2C)cc1 | inactive: 99% |
| Cc1cc(C(=O)NCCc2ccc(Cl)cc2)c2c(C)nn(-c3cccc(F)c3)c2n1 | inactive: 76% |
| O=C1C2C(C(=O)N1/N=C/c1ccc(N3CCCCC3)o1)C1C=CC2C12CC2 (stereo unspecified) | inactive: 103% |
| COc1ccc(N(CC(=O)NCCc2cccc(C)c2)S(=O)(=O)c2c(C)noc2C)cc1 | inactive: 81% |

| Structure (SMILES) | survival |
| --- | --- |
| O=C(Nc1ccccc1)c1ccc2c(c1)OCCO2 | inactive: 110% |
| COC(=O)c1cc2sc(Cl)cc2n1Cc1nc(-c2ccc(OC)cc2)oc1C | inactive: 47% |
| O=C(Nc1nnc(S(=O)(=O)N2CCN(c3ccc(F)cc3)CC2)s1)c1ccc(Cl)cc1 | inactive: 80% |
| COc1ccc(C)cc1NC(=O)C(=O)NCC1(c2ccccc2)CCCC1 | inactive: 94% |
| Cc1ccc(Cl)cc1NC(=O)COCc1cc(-c2ccco2)on1 | inactive: 77% |
| CCCCSCCCNC(=O)CN1C(=O)COc2ccc(S(=O)(=O)N3CCC(C)CC3)cc21 | inactive: 122% |
| Cn1cc(C(F)(F)F)ccc1=S | inactive: 112% |
| CC(C)(C)c1ccc(C2NC(=O)c3n[nH]c(-c4cccs4)c32)cc1 (stereo unspecified) | inactive: 93% |
| Cc1ccc(C(=O)Nc2ccc(C(=O)OCc3cc(=O)n4ccsc4n3)cc2)cc1 | inactive: 75% |
| Cc1ccc(Cn2cc(CCC(=O)NCc3ccccc3F)c3ccccc32)cc1 | inactive: 83% |
| CCN(CC)S(=O)(=O)c1ccc2c(c1)N(CC(=O)N(C)Cc1ccccc1)C(=O)CO2 | inactive: 85% |
| Cc1ccc(NC(=O)Cn2c(CCC(=O)O)ccc2-c2ccc(Cl)cc2)cc1 | inactive: 86% |
| COc1ccccc1N1CCN(c2ncnc3c2nc2n3CCCC2)CC1 | inactive: 71% |
| COC(=O)c1ccc(NC(=O)Cn2nc(C(=O)Nc3ccc(C)cc3)ccc2=O)cc1 | inactive: 85% |
| COc1ccc(-c2[nH]c3c(c2-c2c(-n4cccc4)n(C)c(=O)n(C)c2=O)c(=O)n(C)c(=O)n3C)cc1 | inactive: 86% |
| O=C(CNC(=O)c1ccc(Cl)cc1)OCc1cc(=O)n2ccsc2n1 | inactive: 71% |
| COc1ccc(O)c(C2Nc3ccccc3-n3c(-c4ccccc4)c4c(=O)n(C)c(=O)n(C)c4c32)c1 (stereo unspecified) | active: -6% |
| c1cc2c3c(cccc3c1)NC1(CCCCC1)N2 | inactive: 125% |
| COc1cccc(CNC(=O)C(NS(=O)(=O)c2ccc3c(c2)oc(=O)n3C)C(C)C)c1 (stereo unspecified) | inactive: 76% |
| Cc1cccc(NC(=O)CSc2nc(C3CCCC3)nc3c2c(=O)n(C)c(=O)n3C)c1C | inactive: 93% |
| Cc1nnsc1C(=O)Oc1ccc(C(C)C)cc1 | inactive: 79% |
| Cc1c(C(=O)OCC2CCCCC2)[nH]c2c1C(=O)CC(c1ccc(Cl)cc1)C2 (stereo unspecified) | inactive: 86% |

| Structure (SMILES) | survival |
| --- | --- |
| COc1ccc(S(=O)(=O)Nc2cccc(-c3ccc(N4CCCCCC4)nn3)c2)cc1 | inactive: 68% |
| NS(=O)(=O)c1ccc(Nc2nc3nonc3nc2Nc2ccc(S(N)(=O)=O)cc2)cc1 | inactive: 109% |
| CCn1c(=O)cc(OCC(=O)NCc2ccccc2Cl)c2ccccc21 | inactive: 63% |
| COc1ccc2c(c1)-c1nc(NC(=O)c3ccccc3F)sc1CC2 | active: -1% |
| CCN(CC)C(=O)c1sc2c(c1C)c(=O)n(-c1ccc(C)c(C)c1)c(=O)n2Cc1cc(=O)n2c(C)cccc2n1 | inactive: 22% |
| CCn1c(-c2ccccc2)n[nH]c1=S | inactive: 108% |
| O=C(NCC1CCCO1)c1cc2ccccc2oc1=O (stereo unspecified) | inactive: 94% |
| COc1ccc(CNC(=O)CSc2ncc3c(n2)-c2cc(Cl)ccc2N(Cc2ccccc2)S3(=O)=O)cc1OC | inactive: 66% |
| Cc1nnc(SCc2nc(-c3ccc(Cl)cc3)no2)n1-c1ccc(F)cc1 | inactive: 100% |
| COc1ccccc1NC(=O)Cn1c(=O)n(CCc2ccccc2)c(=O)c2c3c(sc21)CN(C(C)=O)CC3 | inactive: 76% |
| O=C(c1ccccc1)n1nc(-c2ccco2)nc1NCc1cccs1 | inactive: 90% |
| Cc1ccc(Cn2cc(/C=C(/C#N)C(=O)Nc3cccc(Cl)c3)c3ccccc32)cc1 | inactive: 89% |
| COc1cc2ccccc2cc1C(=O)Nc1cc(-c2nc3ccccc3o2)ccc1C | inactive: 126% |
| Cc1cccc(N(C)C(=O)CN(C)S(=O)(=O)c2ccc3[nH]c4c(c3c2)CCCC4)c1 | inactive: 72% |
| O=c1cc(-c2ccccc2)nc2cc(-c3ccc(F)cc3)[nH]n12 | inactive: 148% |
| Cc1ccc(S(=O)(=O)N2CCc3cc(C(=O)Nc4ccc(C)c(C)c4)ccc32)cc1 | inactive: 81% |
| CCOc1ccc(CN(Cc2ccco2)C(c2ccc(C(F)(F)F)cc2)c2nnnn2CCOC)cc1 (stereo unspecified) | inactive: 128% |
| CCC(=O)OCc1cnc(C)c2oc(=O)c(C(=O)Nc3ccccc3C(F)(F)F)cc12 | inactive: 136% |
| CCCCNc1nc(Oc2ccc(OCCC)nn2)nc(N(C)C)n1 | inactive: 87% |
| COc1ccc(CC(=O)Nc2c(C(=O)Nc3ccc(F)cc3)oc3ccccc23)cc1OC | inactive: 95% |

Source: PubChem BioAssay AID463173 (ICCB-Longwood Screening Facility, Harvard Medical School, 2010)
